Source: PubChem BioAssay AID1466 (National Center for Advancing Translational Sciences (NCATS), 2008)
The whole screen tested about 200,000 compounds, of which about 10 (0.005%) were called active. This list was built around the results that the source calls inconclusive (neither active nor inactive); the mix of calls is not that of the screen. The call rests on the fitted dose curve; in most records, active means well fitted inhibition curve with a large enough effect; inconclusive means small, poorly fitted or top-dose-only effect, or effect the other way, or another doubt; inactive means no such curve, though single readings can be large or run the other way. No potency is given beside an inconclusive call; the fits are too rough.

Biological target: Lysosomal alpha-glucosidase (Homo sapiens) (UniProt P10253)
Assay: qHTS Assay for Inhibitors of Human alpha-Glucosidase as a Potential Chaperone Treatment of Pompe Disease;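 on activity change, negative = inhibition: plate controls were uninhibited enzyme wells for no effect and no-enzyme background for full effect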
Details: purified human GAA, 4-MU-alpha-glucoside fluorescence; activity change, negative = inhibition: at 76.9 µM (top of the series) unless noted
Procedure, shortened: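 Fluorescence at Ex 365/Em 440 nm from 4-methylumbelliferone reported enzyme activity after 20 min at room temperature. Reactions used 4 nM enzyme and 400 uM substrate at pH 5.0; curves fitted with the Hill equation.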
Potency means the concentration at half of the fitted maximal effect; tags describe the fitted curve by direction and shape.

Row | SMILES | Potency | activity change, negative = inhibition
1 | COc1ccc2c(c1)c(C(=O)O)c(C)n2C(C)C | inconclusive [inhibitor, single point] | 
2 | CCOP(=O)(OCC)c1nc(-c2cccc3ccccc23)oc1NCCc1ccc(OC)cc1 | inconclusive [activator, partial curve] | 
3 | Nc1c(C(=O)NCc2ccco2)c2nc3ccccc3nc2n1Cc1ccc(F)cc1 | inconclusive [activator, partial curve] | 
4 | CCN1CCC2(CC1)NC(CO)(CO)CO2 | inconclusive [inhibitor, full curve, poor fit] | 
5 | COCCCNC(=O)c1c(NC(=O)c2ccco2)n(Cc2ccccc2)c2nc3ccccc3nc12 |  | inactive: 6.52%
6 | CCCCn1c(N)c(C(=O)NCc2cccs2)c2nc3ccccc3nc21 | inconclusive [activator, partial curve] | 
7 | COc1cccc(N=Cc2c(O)n(Cc3ccco3)c(=O)[nH]c2=O)c1 |  | inconclusive: 20.1% [activator]
8 | COC(=O)c1sc2nc(SCc3cccc(F)c3)n(N)c(=O)c2c1C | inconclusive [activator, partial curve] | 
9 | O=C(C1CC(c2ccc(Cl)c(Cl)c2)=NO1)N1CCC2(CC1)OCCO2 (stereo not given) | inconclusive [inhibitor, full curve, poor fit] | 
10 | CN1Cc2c(c(C#N)c(N)n(C)c2=S)CC1(C)C | inconclusive [activator, partial curve] | 
11 | COc1cc2[nH]c(=O)n(-c3cccc(Cl)c3)c(=O)c2cc1OC |  | inconclusive: 18.8% [activator]
12 | COc1ccc(/C=C2/C(=O)N(Cc3ccco3)C(=O)N(C(C)C)C2=O)cc1 | inconclusive [inhibitor, single point] | 
13 | O=C(c1ccc(C(F)(F)F)cc1)C1CCCN(Cc2ccncc2)C1 (stereo not given) |  | inconclusive: 15.2% [activator]
14 | O=C(c1cc2nc(-c3ccccc3)cc(-c3ccccc3)n2n1)N1CCC2(CC1)OCCO2 | inconclusive [inhibitor, partial curve, poor fit] | 
15 | CCOP(=O)(CN(CC)CCNP(=O)(OCC)OCC)OCC | inconclusive [inhibitor, partial curve] | 
16 | CCC(=NCCCO)c1c(O)n(-c2ccc(OC)cc2)c(=O)[nH]c1=O | inconclusive [inhibitor, single point] | 
17 | CCCCn1c(NC(=O)c2ccc(Br)o2)c(C(=O)OCC)c2nc3ccccc3nc21 | inconclusive [activator, partial curve] | 
18 | CCOP(=O)(c1ccccc1)c1nc(-c2ccc(F)cc2)oc1N1CCCCC1 (stereo not given) | inconclusive [inhibitor, single point] | 
19 | C=CCN1C(=O)/C(=C/c2ccc(N3CCOCC3)o2)C(=O)NC1=S | inconclusive [activator, single point] | 
20 | O=[N+]([O-])c1cc(F)c(N2CCCC2)cc1N1CCNCC1 | inconclusive [inhibitor, full curve] | 

Row | SMILES | Potency | activity change, negative = inhibition
21 | O=C1C2CCN(CC2)C1Cc1ccccc1O (stereo not given) |  | inactive: -4.54%
22 | CCOc1ccc2nc(N=Nc3c(O)[nH]c(=S)[nH]c3=O)sc2c1 |  | inconclusive: -15.6% [inhibitor]
23 | COCCOC(=O)c1c(N)n(Cc2ccc(OC)cc2)c2nc3ccccc3nc12 | inconclusive [activator, partial curve] | 
24 | Cc1oc(-c2ccccc2Cl)nc1CN1C(=O)CN=C(c2ccccc2)c2ccccc21 | inconclusive [inhibitor, partial curve] | 
25 | Nc1ncc(P(=S)(N2CCOCC2)N2CCOCC2)s1 | inconclusive [inhibitor, full curve, poor fit] | 
26 | Cn1c2ccccc2c2c(C(=O)N3CCC4(CC3)OCCO4)cn(C3CCCCC3)c(=O)c21 | inconclusive [activator, partial curve] | 
27 | O=C1NC(=S)N(c2ccc(Br)cc2)C(=O)/C1=C/N1CCN(C(=O)c2ccco2)CC1 |  | inconclusive: 8.75% [activator]
28 | CC(=O)NC(Cc1ccc(N(CCCl)CCCl)cc1)C(=O)NCC(=O)NCC(=O)O (stereo not given) |  | inconclusive: 15.1% [activator]
29 | O=C1C(c2ccccc2)=C(N2CC2)c2ccccc21 | inconclusive [inhibitor, single point] | 
30 | CCCCC/C=C\C/C=C\C/C=C\C/C=C\CCCC(=O)Nc1ccc(O)cc1 | inconclusive [inhibitor, single point] | 
31 | COCCNC(=O)c1c(N)n(Cc2ccco2)c2nc3ccccc3nc12 | inconclusive [activator, partial curve] | 
32 | Cc1c(NP(=S)(C(C)(C)C)C(C)(C)C)c(=O)n(-c2ccccc2)n1C | inconclusive [activator, single point] | 
33 | N#Cc1c(Cl)nc(Cl)c2c1CCN(Cc1ccccc1)C2 | inconclusive [activator, partial curve] | 
34 | Cc1cc(Oc2ccc(C(F)(F)F)cc2[N+](=O)[O-])c2c3c(c(=O)oc2c1)CCC3 | inconclusive [inhibitor, single point] | 
35 | CCn1cc(/C=c2/sc3n(c2=O)C2c4ccccc4OC(C)(N=3)C2C(=O)OC)c(C)n1 (stereo not given) | inconclusive [inhibitor, single point] | 
36 | O=C(O)c1cccc2c1NC(C(=O)O)C1CC(Sc3ccccc3[N+](=O)[O-])C(Cl)C21 (stereo not given) |  | inactive: -1.04%
37 | Cc1cccc(C)c1NC(=O)CN(C)CC(=O)Nc1ccc(C#N)c(Cl)c1 | inconclusive [inhibitor, single point] | 
38 | OCCOCC#CCN1CCOCC1 | inconclusive [inhibitor, single point] | 
39 | COC(=O)C1=CO[C@@H](C)[C@@H]2CN3CC[C@]4(C(=O)Nc5ccccc54)[C@@H]3C[C@H]12 | inconclusive [inhibitor, full curve, poor fit] | 
40 | CCOC(=O)c1c(C)n(Cc2ccco2)c2ccc(OC)cc12 |  | inconclusive: -17% [inhibitor]
